Source: PubChem BioAssay AID1347120 (National Center for Advancing Translational Sciences (NCATS), 2019)
In all, about 390,000 compounds went through this assay and about 930 (0.24%) were called active. Inconclusive results, whose numbers are uncertain, are shown with a selection of clear calls. Calls follow the shape of the dose curve; as a rule, active = well fitted activation curve with a large enough effect; inconclusive = small, poorly fitted or top-dose-only effect; inactive = no such curve, though single readings can be large or run the other way. A potency beside an inconclusive call is a rough fit, not a confirmed value.

Test: qHTS for Suppressors of FUS Proteinopathy: Primary screen using FUS-linked yeast assay; also: nearly all actives have a fitted effect of over 55% in size;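 as to growth rescue (activation): plate controls were DMSO vehicle for no effect and reference control for full effect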
Settings: S. cerevisiae FUS-expressing, OD600, 24 h; Potency: growth rescue; growth rescue (activation): at 76.6 µM (top of the series)
Summary of the method: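 Read-out: OD at 600 nm after 24hr at 30C, reporting rescue of FUS-induced yeast toxicity. Cells at OD 0.005 in galactose (2%) minimal medium; compounds tested in a dilution series; CP55940 titration from 92uM final as control.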
Potency is read from the fitted curve at half-maximal effect; tags tell the direction and shape of the fitted curve.

Question: For `COc1ccc(S(=O)(=O)N2CCCCCC2)cc1NC(=O)CN1C(=O)NC(C)(c2ccccc2)C1=O` (stereo unspecified), which Potency is on record?
Answer: Its Potency is inconclusive: 22.4 µM [activator, partial curve, poor fit].

Question: For `NC(=S)n1[nH]c(-c2ccc([N+](=O)[O-])cc2)c(N=Nc2ccc(O)cc2)c1=O`, which Potency is on record?
Answer: Its Potency is inconclusive: 44.7 µM [activator, partial curve, poor fit].

Question: Which Potency does the source give for `Cc1ccc(COn2c(-c3ccc(Cl)cc3Cl)nc3ncccc32)cc1` here?
Answer: The Potency was inconclusive: 50.1 µM [activator, single point].

Question: Which Potency does the source give for `COC(=O)[C@@]12C[C@@H](CC(=O)NCCC(C)C)C(=O)N(CCc3ccc(OC)c(OC)c3)C1=CCC(C)(C)C2` here?
Answer: Its Potency is inconclusive: 3.55 µM [activator, partial curve, poor fit].

Question: Which Potency does the source give for `CCCN1C/C(=C/c2cccc([N+](=O)[O-])c2)C(=O)/C(=C/c2cccc([N+](=O)[O-])c2)C1` here?
Answer: The Potency was inconclusive: 17.8 µM [activator, partial curve, poor fit].

Question: Which “growth rescue (activation)” value does the source give for `Cc1ccccc1CN[C@@H]1CC[C@@]23CCCN2C(=O)CCC[C@H]3C1` here?
Answer: Its value is inactive: 10.2%.

Question: Which “growth rescue (activation)” value does the source give for `CC1CCN(S(=O)(=O)c2ccc3c(ccc(=O)n3CC(=O)NCc3ccccc3)c2)CC1` here?
Answer: Its value is inactive: -2.38%.

Question: For `CCc1ccc(NC2CC(=O)N(CCc3ccc(OC)c(OC)c3)C2=O)cc1` (stereo unspecified), which “growth rescue (activation)” value is on record?
Answer: The value was inactive: 21.8%.

Question: For `Cc1ccc(CCNC(=O)c2oc(=O)c3ccccc3c2-c2ccc(C)cc2)cc1`, which Potency is on record?
Answer: Its Potency is inconclusive: 22.4 µM [activator, partial curve].

Question: Which Potency does the source give for `CC(NC(=O)[C@H](C)N1C(=O)N2CCc3c([nH]c4ccccc34)[C@@]2(C)C1=O)c1ccccc1` (stereo partly specified) here?
Answer: The Potency was inconclusive: 28.2 µM [activator, single point].

Question: For `CC(C)CCOc1cccc(OCC(=O)N(C)C2CCS(=O)(=O)C2)c1` (stereo unspecified), which Potency is on record?
Answer: The Potency was inconclusive: 20 µM [activator, partial curve, poor fit].

Question: Which “growth rescue (activation)” value does the source give for `Cc1ccc(CNC(=O)c2cc(=O)c3cc(C)c(C)cc3o2)cc1` here?
Answer: Its value is inactive: -0.163%.

Question: Which “growth rescue (activation)” value does the source give for `COc1ccc(NC(=O)c2cc(=O)c3cc(C)cc(C)c3o2)cc1` here?
Answer: Its value is inactive: -4.69%.

Question: For `Cc1cccnc1Nc1nc(-c2ccccn2)cs1`, which “growth rescue (activation)” value is on record?
Answer: The value was inactive: 1.2%.

Question: With `Cc1c(C)n(C)c2ccc(C(=O)NCCCN3CCN(c4ccccc4F)CC3)cc12` as the compound, how does the Potency read?
Answer: The Potency was inconclusive: 50.1 µM [activator, single point].

Question: For `O=C(OCc1nnc(-c2ccc(Cl)cc2)o1)c1ccc(O)cc1`, which “growth rescue (activation)” value is on record?
Answer: Its value is inactive: 21.2%.

Question: For `CC(C)N(Cc1nc(-c2ccccc2)no1)C(=O)CSc1ccccc1`, which Potency is on record?
Answer: The Potency was inconclusive: 20 µM [activator, partial curve, poor fit].

Question: For `O=C(/C=C/c1ccc(Cl)cc1Cl)NCCSc1ccccc1`, which “growth rescue (activation)” value is on record?
Answer: Its value is inactive: 1.21%.

Question: With `CC1=C(C(=O)OCc2ccccc2)C(c2ccco2)n2ncnc2N1` (stereo unspecified) as the compound, how does the Potency read?
Answer: The Potency was inconclusive: 14.1 µM [activator, partial curve].

Question: For `O=C(CSc1nnc(C2CCCCC2)o1)N1CCCCC1`, which Potency is on record?
Answer: Its Potency is inconclusive: 50.1 µM [activator, single point].

Question: For `Cc1ccc2cc(CN(CC3CCCO3)C(=S)Nc3ccccc3)c(=O)[nH]c2c1C` (stereo unspecified), which Potency is on record?
Answer: Its Potency is inconclusive: 25.1 µM [activator, partial curve, poor fit].

Question: Which Potency does the source give for `CCCN(CCC)C(=O)C1CCN(c2ccc(S(=O)(=O)N3CCOCC3)cc2[N+](=O)[O-])CC1` here?
Answer: The Potency was inconclusive: 10 µM [activator, partial curve, poor fit].

Question: For `N#C/C(=C\c1ccc(N2CCCCC2)o1)C(N)=O`, which “growth rescue (activation)” value is on record?
Answer: Its value is inactive: 0%.

Question: With `CCc1nc2oc3ccccc3c(=O)c2c(=O)n1CCOC` as the compound, how does the “growth rescue (activation)” value read?
Answer: Its value is inactive: 20.7%.

Question: With `O=[N+]([O-])c1ccc(C(c2sc3nc(-c4ccco4)nn3c2O)N2CCN(Cc3ccccc3)CC2)cc1` (stereo unspecified) as the compound, how does the “growth rescue (activation)” value read?
Answer: Its value is inactive: 13.5%.

Question: For `Cc1ccc(C)c(N2CCN(C(=O)Cn3cnc4sc(C)c(S(=O)(=O)N5CCN(c6ncccn6)CC5)c4c3=O)CC2)c1`, which Potency is on record?
Answer: The Potency was inconclusive: 22.4 µM [activator, partial curve, poor fit].

Question: For `NC(=O)c1ccc(-c2ccc(Br)cc2)o1`, which “growth rescue (activation)” value is on record?
Answer: The value was inactive: 5.33%.

Question: With `CN(C)C(CNc1ncnc2sc3c(c12)CCCC3)c1ccco1` (stereo unspecified) as the compound, how does the Potency read?
Answer: The Potency was inconclusive: 31.6 µM [activator, partial curve, poor fit].

Question: For `CC1=C(C(=O)OC2CCCC2)C(c2ccc(C)o2)C2=C(CC(c3cccs3)CC2=O)N1` (stereo unspecified), which Potency is on record?
Answer: Its Potency is inconclusive: 50.1 µM [activator, single point].

Question: Which growth rescue (activation) does the source give for `CCN(CC)S(=O)(=O)c1ccc(NC(=O)CN(c2cccc(F)c2)S(C)(=O)=O)cc1` here?
Answer: Its growth rescue (activation) is inconclusive: 86.2% [activator].

Question: With `CCOc1cc(/C=C2/SC(=O)N(CC(=O)N3CCc4ccccc4C3)C2=O)ccc1OCC(=O)O` as the compound, how does the Potency read?
Answer: Its Potency is inconclusive: 3.16 µM [activator, full curve].

Question: Which Potency does the source give for `O=[N+]([O-])c1ncccc1OCc1ccccc1Br` here?
Answer: The Potency was inconclusive: 39.8 µM [activator, partial curve, poor fit].

Question: For `O=C(N[C@@H]1C/C=C\C[C@@H](CC(=O)N(CCO)Cc2ccccc2)C(=O)NC[C@H](c2ccccc2)OC1=O)OCC1c2ccccc2-c2ccccc21`, which Potency is on record?
Answer: The Potency was inconclusive: 35.5 µM [activator, single point].

Question: Which Potency does the source give for `COc1ccc(-c2noc(CSc3nnc(CCc4ccccc4)n3-c3ccccc3)n2)cc1OC` here?
Answer: Its Potency is inconclusive: 15.8 µM [activator, partial curve].

Question: For `Cc1cc(C)c2c(=O)cc(C(=O)Nc3ccc(C)c(Cl)c3)oc2c1`, which “growth rescue (activation)” value is on record?
Answer: Its value is inactive: -0.688%.

Question: Which Potency does the source give for `COCOCCn1cc(CN2CCS(=O)(=O)N(Cc3ccc(-c4ccc(Cl)c(Cl)c4)cc3)C(C)C2=O)nn1` (stereo unspecified) here?
Answer: The Potency was inconclusive: 28.2 µM [activator, single point].

Question: For `CCOC(=O)[C@@H]1[C@H]2COc3cc(OC)ccc3[C@@H]2N2C(=O)N(c3ccc(Br)cc3)C(=O)[C@]12C`, which Potency is on record?
Answer: Its Potency is inconclusive: 31.6 µM [activator, single point].

Question: With `COc1cc(NC(=O)c2cc3cccc(OC)c3o2)cc(C(=O)Nc2cccc(C(F)(F)F)c2)c1` as the compound, how does the “growth rescue (activation)” value read?
Answer: The value was inactive: 7.98%.

Question: Which “growth rescue (activation)” value does the source give for `CCc1ccc(C2=CC(c3cccc(C)c3)n3c(nc4ccccc43)N2)cc1` (stereo unspecified) here?
Answer: Its value is inactive: 31.5%.

Question: Which “growth rescue (activation)” value does the source give for `O=C(N/N=C\c1ccccc1)c1ccccc1-n1cccc1` here?
Answer: The value was inactive: 2.34%.

Question: For `OCCOCCN1CCN(C(=S)Nc2ccccc2)CC1`, which Potency is on record?
Answer: Its Potency is inconclusive: 31.6 µM [activator, single point].
